Laboratory results taken from article PMC4336329 (PLoS ONE, 2015).
Out of some 310,000 compounds screened, about 2,200 (0.71%) showed an effect of 50% or more. The effect is printed as a negative number. The list shows a part of the results.

Biological target: human ether-à-go-go-related gene (hERG) potassium channel (human, UniProt Q12809)
Experiment: primary screen, population patch clamp on CHO cells stably expressing hERG

human ether-à-go-go-related gene (hERG) potassium channel, sequence (Q12809 whole entry, looked up): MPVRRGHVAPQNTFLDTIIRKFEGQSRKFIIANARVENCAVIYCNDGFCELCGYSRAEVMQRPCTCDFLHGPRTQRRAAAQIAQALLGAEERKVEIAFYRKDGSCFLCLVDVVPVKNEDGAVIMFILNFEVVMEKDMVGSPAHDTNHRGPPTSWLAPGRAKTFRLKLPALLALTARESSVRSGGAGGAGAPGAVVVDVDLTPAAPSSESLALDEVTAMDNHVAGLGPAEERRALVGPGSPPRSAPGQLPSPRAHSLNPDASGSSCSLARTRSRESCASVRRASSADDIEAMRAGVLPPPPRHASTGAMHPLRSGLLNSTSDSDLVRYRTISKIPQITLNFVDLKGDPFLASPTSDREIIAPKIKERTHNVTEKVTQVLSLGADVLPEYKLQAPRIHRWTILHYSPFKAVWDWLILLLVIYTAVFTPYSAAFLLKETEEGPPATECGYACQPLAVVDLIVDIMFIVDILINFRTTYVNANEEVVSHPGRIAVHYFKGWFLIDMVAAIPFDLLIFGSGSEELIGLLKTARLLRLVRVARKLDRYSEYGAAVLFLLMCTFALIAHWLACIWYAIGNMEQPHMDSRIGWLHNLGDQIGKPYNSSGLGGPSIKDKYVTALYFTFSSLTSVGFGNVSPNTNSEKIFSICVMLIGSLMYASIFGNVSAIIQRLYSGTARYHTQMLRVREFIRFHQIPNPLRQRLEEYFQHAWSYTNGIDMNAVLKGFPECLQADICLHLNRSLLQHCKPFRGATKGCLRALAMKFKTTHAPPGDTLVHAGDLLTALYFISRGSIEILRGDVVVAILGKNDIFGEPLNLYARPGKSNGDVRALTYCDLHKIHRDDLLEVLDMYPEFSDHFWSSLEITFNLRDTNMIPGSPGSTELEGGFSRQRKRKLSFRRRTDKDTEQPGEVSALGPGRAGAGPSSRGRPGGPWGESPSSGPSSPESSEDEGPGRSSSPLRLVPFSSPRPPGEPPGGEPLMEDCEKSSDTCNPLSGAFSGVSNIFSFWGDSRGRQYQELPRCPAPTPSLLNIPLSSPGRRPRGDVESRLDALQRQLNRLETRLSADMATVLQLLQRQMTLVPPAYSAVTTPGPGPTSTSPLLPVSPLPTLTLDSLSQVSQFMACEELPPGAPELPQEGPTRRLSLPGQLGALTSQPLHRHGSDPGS

Row | Structure (SMILES) | hERG current change (%, negative = inhibition) at 1uM [%]
1 | Cc1cc(C)c2cc(CN(Cc3ccco3)C(=S)NCC3CCCO3)c(=O)[nH]c2c1 (stereo not drawn) | -1.08
2 | Cc1nc2ccccn2c1C(=O)Nc1ccc(Cl)cc1 | 14
3 | CC(=O)Nc1ccc(Nc2cc(N(C)C)c3nonc3c2[N+](=O)[O-])cc1 | 10.6
4 | Cc1cc(C)c(S(=O)(=O)NCc2cccnc2)cc1C | 14.8
5 | CN(C)S(=O)(=O)c1cccc(-c2nn(-c3ccccc3)cc2/C=C2\SC(=S)N(CC(=O)O)C2=O)c1 | 6.66
6 | Cc1ccnc(NC(=O)c2cccc(NC(=O)COc3ccccc3)c2)c1 | -1.04
7 | O=C(CSc1nnc(-c2ccccc2O)n1-c1ccccc1)Nc1cccc(C(=O)O)c1 | 14.7
8 | COc1cc(C2C(C#N)=C(N)Oc3n[nH]c(C)c32)cc2c1OCO2 (stereo not drawn) | -3.12
9 | O=C(CN1CC(c2ccccc2)CC1=O)Nc1ccccc1 (stereo not drawn) | 10.2
10 | Cl.c1ccc(CNc2c3c(nc4ccccc24)CCC3)cc1 | -75.8
11 | Cc1ccc(OC(=O)c2ccncc2)c(C)c1 | 12.6
12 | CCCCCOc1ccc(CSc2ncn[nH]2)cc1 | 3.11
13 | CS(=O)(=O)Cc1ccc(C(=O)NC(c2ccccc2)c2ccccc2)cc1 | 12.3
14 | Cc1cc(C)cc(NC(=O)CS(=O)(=O)c2cccc3nsnc23)c1 | 4.74
15 | CCn1ncc(C2=NOC(C(=O)N3CCN(c4ccccc4)CC3)C2)c1C (stereo not drawn) | -4.01
16 | CC(=O)N[C@@H](Cc1c[nH]c2ccccc12)C(=O)NC1CC1 | 10.1
17 | O=C(CCNC(=O)C1CCN(S(=O)(=O)c2ccc(F)cc2)CC1)NCCc1cccc(F)c1 | 11.7
18 | CC(C)CC1NC(=O)N(CC(=O)N2c3ccccc3NC(=O)C2(C)C)C1=O (stereo not drawn) | 10
19 | COc1ccc(C(=O)NNC(=S)NC(=O)c2ccc(Br)o2)cc1OC | 6.58
20 | C=CCn1c(C)cc(C(=O)Cn2ncc(Cl)c(Cl)c2=O)c1C | 0.203
21 | CCCCNC(=O)c1cc2c(=O)n3cccc(C)c3nc2n(Cc2ccccc2)c1=N | -80.7

Row | Structure (SMILES) | hERG current change (%, negative = inhibition) at 1uM [%]
22 | COc1cccc(NC(=O)Cn2c(=O)n(C)c(=O)c3sc4c(c32)COC(C)(C)C4)c1 | 6.97
23 | CCC(=O)N(c1ccc(F)cc1)C1C=CS(=O)(=O)C1 (stereo not drawn) | 8.34
24 | CC1(C(=O)NCc2ccc(Cl)c(Cl)c2)Oc2ccccc2NC1=O (stereo not drawn) | 6.03
25 | Cc1ccc(-n2ncc3c(=O)n(Cc4ccccn4)cnc32)cc1C | -0.792
26 | O=C(CSc1nc2ccccc2o1)Nc1nncs1 | 14.9
27 | O=C(C1CCCO1)N1CCN(C(=S)Nc2ccc(Br)cc2)CC1 (stereo not drawn) | 10.4
28 | COc1cccc(CN(C(=O)COc2ccc(Cl)cc2)C2CCS(=O)(=O)C2)c1 (stereo not drawn) | 5.28
29 | COc1ccc(-c2csc(Nc3cccc(C)n3)n2)cc1C | 11.8
30 | COc1ccc(NC(=S)NCCCc2ccccc2)cc1 | 3.53
31 | N#CC1(NC(=O)CSc2nnc(Cc3ccccc3)o2)CCCCC1 | 8.97
32 | CCOC(=O)c1c(-c2ccc(C)o2)csc1NC(=O)CSc1nnc(C)s1 | 13.6
33 | O=S(=O)(NCC(c1ccc2c(c1)OCO2)N1CCN(c2ccccc2)CC1)c1ccccc1 (stereo not drawn) | 14
34 | COc1ccc(-c2c[n+]3c4n2CCCCC4=C(c2ccc(Br)cc2)C3)cc1.[Br-] | -79.6
35 | O=C1[C@@H]2C3C=CC(O3)[C@@H]2C(=O)N1c1ccccc1 | 12.7
36 | CCOc1ccc(OCCOC(=O)CN(C)S(=O)(=O)c2ccc(NC(C)=O)cc2)cc1 | 5.33
37 | CN(C)CCSc1nnc2sc3ccccc3n12 | 3.31
38 | N#Cc1cnn2c(N)c(-c3ccc(Cl)cc3)cnc12 | 16.2
39 | O=C(c1cc(-c2cccc(Br)c2)nc2ccccc12)N1CCCC1 | 4
40 | CCCNC(=O)COc1coc(CN2CCN(C(=O)c3ccco3)CC2)cc1=O | 7.77
41 | Cc1cc(C)nc(SCNC(=O)c2ccccc2)n1 | 8.19
42 | CN(C)C(=O)C(=O)c1c(-c2ccccc2)cc2ccccn12 | 9.87

Row | Structure (SMILES) | hERG current change (%, negative = inhibition) at 1uM [%]
43 | OC(COCC(F)(F)C(F)(F)C(F)(F)C(F)F)Cn1c2ccccc2c2ccccc21 (stereo not drawn) | 4.98
44 | Cc1cccc2cc3c(N)c(C#N)sc3nc12 | 14.9
45 | O=C(CN1CCN(c2ccccn2)CC1)Nc1ccc(Cl)c(C(F)(F)F)c1 | 0.117
46 | O=C(CCN1CCN(S(=O)(=O)c2ccc(Cl)cc2)CC1)Nc1ccccc1F | 4.11
47 | CN(CC(=O)Nc1ccc(F)cc1)C(=O)c1cc(-c2ccco2)nc2ccccc12 | 10.1
48 | Cc1ccc(CNC(=O)c2ccc(N3CCC4(CC3)CC(c3cccc(Br)c3)=NO4)c([N+](=O)[O-])c2)cc1 | 10.6
49 | CS(=O)(=O)c1cccc(C(=O)OCC(=O)Nc2ccc3c(c2)OCO3)c1 | 3.48
50 | CC1CCN(CCCNC(=O)C2CCN(S(=O)(=O)N3CCC4(CC3)OCCO4)CC2)CC1 | 12.7
51 | C=CCn1c(SCC(=O)Nc2ncc(Cc3ccc(C)c(Cl)c3)s2)nnc1-c1ccncc1 | 8.97
52 | COc1ccc(-c2cn3cccnc3n2)cc1NC(=O)CC(C)C | 10.2
53 | CCC1=C(OC(=O)N(CC)CC)N2C(=O)OC(=NCc3ccccc3)[C@]2(C)[C@H]2C1=CC[C@H]1C(=O)N(c3ccccc3)C(=O)[C@H]12 | -4.57
54 | O=C(O)CCC(=O)NNC(=O)c1cccc(Cl)c1 | 12.1
55 | Cc1ccc(NC(=S)NCc2ccccc2)cc1C | 14.3
56 | CCCCn1c(SCC(=O)Nc2cc(C(F)(F)F)ccc2Cl)nnc1C(CC)N(C)C (stereo not drawn) | -1.24
57 | COc1ccc(S(=O)(=O)NCCC(=O)Nc2ccc(C)cc2)cc1 | 8.93
58 | COc1ccc(N(CC(=O)N2CCN(C)CC2)S(=O)(=O)c2cc(C)ccc2OC)cc1Cl | -15.8
59 | CCN(C(=O)COC(=O)Cn1c(C)csc1=O)c1c(N)n(Cc2ccccc2)c(=O)[nH]c1=O | 2.6
60 | C=CCc1ccc(OC(=O)c2ccccc2)c(OC)c1 | 14.9
61 | O=C(c1ccco1)N1CCN(c2cc(C(F)(F)F)nc3ncnn23)CC1 | 1.59
62 | O=S1(=O)C[C@@H](O)[C@@H](Nc2ccc(Cl)cc2)C1 | 10.7
63 | CC(C)(C)N(Cc1ccccc1)C(=O)COC(=O)/C=C/c1ccc2c(c1)OCO2 | -4.1

Row | Structure (SMILES) | hERG current change (%, negative = inhibition) at 1uM [%]
64 | CCC(C)C(=O)N[C@@H](c1ccccc1)[C@@H](O)C(=O)O[C@H]1C[C@@]2(O)[C@@H](OC(=O)c3ccccc3)C3[C@](C)(C(=O)[C@H](OC(C)=O)C(=C1C)C2(C)C)[C@@H](O)C[C@H]1OC[C@@]31OC(C)=O (stereo partly drawn) | 7.34
65 | COc1ccc(S(=O)(=O)N2CCC(C(=O)Nc3ccccc3N3CCCC3)CC2)cc1OC | 9.19
66 | COC(=O)C1(C)NC(c2ccccc2C)C2C(=O)N(c3ccc(F)cc3)C(=O)C21 (stereo not drawn) | 4.52
67 | N#CC(c1ccc(Cl)nn1)c1ccccc1Cl (stereo not drawn) | 4.99
68 | COc1ccc(C(CNC(=O)c2ccc(-c3cccc(C(F)(F)F)c3)o2)N2CCOCC2)cc1 (stereo not drawn) | 16.9
69 | CC1(C(=O)NCCc2c[nH]c3ccccc23)C=CC2(CCCCC2)N1C(=O)c1ccccc1 (stereo not drawn) | 2.59
70 | COc1ccc(NC(=O)c2ccc(S(=O)(=O)N3CCCCC3)cc2)c(OC)c1 | 10.5
71 | O=[N+]([O-])c1ccc(/C=N/n2c(-c3ccccc3)n[nH]c2=S)cc1 | 12.5
72 | Cc1cc(C)c(S(=O)(=O)N(C)CC(N)=O)c(C)c1 | 11.7
73 | Cc1ccccc1NC(=O)c1cccc(S(=O)(=O)Nc2cccc(C(=O)O)c2)c1 | 14.1
74 | Cc1cc(-c2n[nH]c(=S)n2/N=C/c2ccc(C)s2)n[nH]1 | 16.1
75 | O=C(NCCc1c[nH]c2ccccc12)C1CCN(S(=O)(=O)c2ccccc2F)CC1 | 14.8
76 | O=C(COc1ccccc1)Nc1ccccc1Oc1ccccc1 | 5.9
77 | CC(=O)Nc1ccc(C(=O)OCC(=O)N2CCC(Cc3ccccc3)CC2)cc1 | 11.8
78 | Cc1ccc(COc2cccc(/C=N/NC(=O)c3nnn(-c4nonc4N)c3C)c2)cc1 | 21.3
79 | CCSc1nsc(NC(=O)Nc2cccc(OC)c2)n1 | 0.414
80 | Cc1oc(-c2ccccc2F)nc1CSCC(=O)NCc1ccc2c(c1)OCO2 | 1.31
81 | COc1ccc(CN2C(=NC(=O)C3CC3)SC3CS(=O)(=O)CC32)cc1OC (stereo not drawn) | 2.11
82 | O=C1CC(c2cccc(O)c2)Oc2ccccc21 (stereo not drawn) | -1.44
83 | O=S(=O)(c1ccc(C(F)(F)F)cc1)N1CCCN(c2ccc(C(F)(F)F)cn2)CC1 | 8.1
84 | COC(=O)C1CCN(C(=O)COC(=O)C2CCN(S(=O)(=O)c3ccc(C)c(C)c3)CC2)CC1 | 16.6
